# PubChem BioAssay AID624417 (National Center for Advancing Translational Sciences (NCATS), 2012)
# The whole screen tested about 410,000 compounds, of which about 6,400 (1.6%) were called active. Inconclusive results, whose numbers are uncertain, are shown with a selection of clear calls. Calls follow the shape of the dose curve; as a rule, active = well fitted inhibition curve with a large enough effect; inconclusive = small, poorly fitted or top-dose-only effect; inactive = no such curve, though single readings can be large or run the other way. No potency is given beside an inconclusive call; the fits are too rough.
# Biological target: Glucagon-like peptide 1 receptor (Homo sapiens) (UniProt P43220)
# UniProt P43220, sequence (P43220 whole entry, looked up): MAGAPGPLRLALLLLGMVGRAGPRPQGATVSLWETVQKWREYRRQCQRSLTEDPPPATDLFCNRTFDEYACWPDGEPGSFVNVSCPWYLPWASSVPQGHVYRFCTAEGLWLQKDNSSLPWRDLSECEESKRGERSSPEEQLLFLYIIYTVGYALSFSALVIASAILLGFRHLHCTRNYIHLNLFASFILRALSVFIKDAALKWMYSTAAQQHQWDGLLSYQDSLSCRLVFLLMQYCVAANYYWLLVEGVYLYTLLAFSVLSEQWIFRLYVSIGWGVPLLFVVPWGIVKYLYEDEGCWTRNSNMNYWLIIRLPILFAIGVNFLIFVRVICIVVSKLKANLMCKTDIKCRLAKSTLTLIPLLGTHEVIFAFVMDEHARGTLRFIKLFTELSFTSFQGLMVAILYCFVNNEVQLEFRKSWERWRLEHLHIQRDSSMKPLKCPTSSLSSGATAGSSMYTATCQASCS
# Assay: qHTS of GLP-1 Receptor Inverse Agonists (Inhibition Mode); also: nearly all actives have a fitted effect of over 55% in size
# Details: HEK293 GLP-1R CRE-luciferase, luminescence, 24 h, GLP-1R form is constitutively active; activity change, negative = inhibition: at 38.3 µM (top of the series) unless noted
# In short: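 Assay principle: reduced luminescence from a cAMP-responsive reporter in HEK293 cells co-expressing a constitutively active GLP-1R. Conditions: 24 hr compound incubation, 37 deg C, 5% CO2.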
# % is scaled to controls: 0 for no effect and ±100 for the full control effect; potency is read from the fitted curve at half-maximal effect; tags tell the direction and shape of the fitted curve.
Structure (SMILES),Potency,"activity change, negative = inhibition"
CCN(c1ccccc1)S(=O)(=O)c1ccc(OC)c(NC(=O)CNCCc2ccccc2)c1,"inconclusive [inhibitor, partial curve, poor fit]",–
COc1ccc(Cl)cc1Cn1c(C)c(C(=O)NCc2ccccc2C(F)(F)F)sc1=O,"inconclusive [inhibitor, single point]",–
COc1ccccc1N1CCN(C(=O)C2CCN(C(=O)c3cccc(Cl)c3)CC2)CC1,"inconclusive [inhibitor, partial curve, poor fit]",–
Nc1nonc1-c1noc(N2CCCCC2)n1,inactive,–
CCC(C(=O)OCc1csc(CC(=O)Nc2ccccc2C)n1)c1ccccc1 (stereo not given),"inconclusive [inhibitor, single point]",–
CC1CN(S(=O)(=O)c2cc(C(=O)NCc3ccncc3)ccc2Cl)CC(C)O1 (stereo not given),inactive,–
CCOC(=O)c1cc(-c2ccccc2)n(-c2cccc(C(=O)Nc3cccc(C)c3)c2)c1C,"inconclusive [inhibitor, partial curve, poor fit]",–
CS(=O)(=O)N1CCC(C(=O)Nc2ccc(Cl)c(Cl)c2)CC1,"inconclusive [inhibitor, single point]",–
CCOc1ccc(C(O)(c2ccccc2)C(CN2CCCC2)c2ccccc2)cc1 (stereo not given),"inconclusive [inhibitor, partial curve, poor fit]",–
O=C(CC1NCCNC1=O)Nc1ccccc1F (stereo not given),inactive,–
Cc1c(Cc2ccccc2)c(=O)oc2cc(OCC(=O)NCC(O)c3ccccc3)ccc12 (stereo not given),"inconclusive [inhibitor, single point]",–
O=C(c1ccccc1Cl)N1N=C(c2ccc(Br)cc2)CC1c1nc2ccccc2[nH]1 (stereo not given),"inconclusive [inhibitor, partial curve, poor fit]",–
COc1ccc(-c2cc(C(=O)Nc3ccc(C(N)=O)cc3)c3ccccc3n2)cc1,"inconclusive [inhibitor, single point]",–
Cc1ccc(Cl)cc1N1CCN(C(=O)C2CCN(c3nnc(-n4cccc4)s3)CC2)CC1,active: 3.55 µM,–
O=C(COC(=O)CNC(=O)c1ccccc1)Nc1ccc(F)c([N+](=O)[O-])c1,inactive,–
Cc1ccc(C(=O)NC(=S)Nc2ccc(N3CCOCC3)cc2)cc1C,inactive,–
COc1ccc(-c2nn(-c3ccccc3)cc2C(=O)NC(=S)NNC(=O)c2ccncc2)cc1,"inconclusive [inhibitor, single point]",–
O=C(CSc1nnc(Cc2csc(Nc3cccc(Cl)c3)n2)o1)N1CCc2ccccc21,"inconclusive [inhibitor, full curve, poor fit]",–
Cc1ccc(OCc2nc(-c3ccc(C(=O)N4CCN(c5cc(Cl)ccc5C)CC4)cc3)oc2C)cc1,"inconclusive [inhibitor, partial curve, poor fit]",–
O=C(/C=C/c1ccccc1)c1ccc(NC2=NCCCS2)cc1,"inconclusive [inhibitor, partial curve, poor fit]",–
NC(=O)c1ccc(NC(=O)COC(=O)C2(c3cccc(F)c3)CCCC2)cc1,"inconclusive [inhibitor, partial curve, poor fit]",–
COc1cc([N+](=O)[O-])cc(/C=N/NC(=O)Cn2cncn2)c1O,"inconclusive [inhibitor, single point]",–

Structure (SMILES),Potency,"activity change, negative = inhibition"
COc1ccccc1CNc1nc(NC(C)C)nc2ccsc12,"inconclusive [inhibitor, single point]",–
COCCC1CCCCN1Cc1cn(-c2ccccc2)nc1-c1ccc2c(c1)OCO2 (stereo not given),"inconclusive [inhibitor, single point]",–
CCOC(=O)c1c(C)[nH]c(C(=O)OCC(=O)Nc2sccc2C(N)=O)c1C,active: 11.2 µM,–
CN1CCC[C@H]1CCNc1ccc2c(=O)c3ccccc3n(C)c2c1,"inconclusive [inhibitor, single point]",–
CCC(C)n1c(SCc2ccc(C(C)(C)C)cc2)nc2ccsc2c1=O (stereo not given),inactive,–
CCC(=O)OCCNc1cc(SCCC(=O)OC)c2nonc2c1[N+](=O)[O-],inactive,–
O=C(CSc1ccc(C(F)(F)F)cn1)Nc1ccccc1,inactive,–
CS(=O)(=O)N(CC(=O)N1CCN(Cc2ccccc2)CC1)c1cccc(Cl)c1,"inconclusive [inhibitor, partial curve, poor fit]",–
CN(CCOc1ccc(Cl)cc1)C(=O)c1cccc(S(=O)(=O)N2CCN(c3ccc(F)cc3)CC2)c1,active: 3.98 µM,–
COc1ccccc1CNC(=O)C(=O)c1cn(CC(=O)N2CCCCC2)c2ccccc12,"inconclusive [inhibitor, single point]",–
N#CCSc1nnc(COc2cccc3ccccc23)n1-c1cccc(Cl)c1,"inconclusive [inhibitor, single point]",–
O=C(Cn1ccn(-c2ccc(F)c(F)c2)c(=O)c1=O)c1ccc(F)cc1,inactive,–
COc1cc2cnc(-c3ccccc3)c(-c3cccc(C(F)(F)F)c3)c2cc1OC,"inconclusive [inhibitor, single point]",–
OC1(C2(O)CC(c3ccccc3)ON2)CCCCC1 (stereo not given),"inconclusive [inhibitor, partial curve]",–
COc1ccc(S(=O)(=O)Cc2ccc(C(=O)NCCCN(C)c3ccccc3)o2)cc1,"inconclusive [inhibitor, single point]",–
O=C(Nc1ccccc1C(=O)O)c1ccc(NC(=O)C2CCCO2)cc1 (stereo not given),inactive,–
NC(=S)N/N=C/c1ccc2cccc(OCc3ccccc3)c2n1,"inconclusive [inhibitor, single point]",–
C=C1C(=O)c2sccc2C(c2ccc(OC)c(OC)c2)C1COC(C)=O (stereo not given),"inconclusive [inhibitor, full curve, poor fit]",–
COc1cc(NC(=O)c2cc(OC)c(OC)c(OC)c2)c(OC)cc1NC(=O)CN1CCCCC1,"inconclusive [inhibitor, partial curve, poor fit]",–
CNCc1ccccc1Sc1ccc(OC)cc1,"inconclusive [inhibitor, full curve, poor fit]",–
CC(C)c1ccc(/C=C/c2[nH]c(=O)[nH]c(=O)c2[N+](=O)[O-])cc1,"inconclusive [inhibitor, single point]",–
CC(C)(C)NC(=O)N1CCN(c2nc3ccc(Cl)cc3s2)CC1,"inconclusive [inhibitor, single point]",–

Structure (SMILES),Potency,"activity change, negative = inhibition"
Cc1cc(Cl)ccc1NC(=S)N(CCCN1CCOCC1)Cc1cccs1,"inconclusive [inhibitor, single point]",–
CCN(CC)S(=O)(=O)c1cccc(C(=O)Nc2cc(C)cc(C)c2)c1,active: 2 µM,–
CCOc1ccccc1NC(=O)C1CCCN1S(=O)(=O)c1ccccc1C(F)(F)F (stereo not given),"inconclusive [inhibitor, single point]",–
Cc1ccc(C(=O)OCC(=O)N2CC(C)CC(C)C2)cc1S(=O)(=O)N1CCCCC1 (stereo not given),"inconclusive [inhibitor, single point]",–
CC(C)c1cccc(OCC(=O)Nc2ccc(S(=O)(=O)Nc3ccccn3)cc2)c1,"inconclusive [inhibitor, single point]",–
Cc1nn2c(nc1=O)NNC2(C)C(C)(C)C (stereo not given),"inconclusive [inhibitor, single point]",–
COc1ccc(Cl)cc1NC(=O)CSc1c2c(nc3ccccc13)CCC2,"inconclusive [inhibitor, single point]",–
Cc1cccn2c(=O)c3cc(C#N)c(=N)n(CCN4CCOCC4)c3nc12,inactive,–
Cc1ccc2nc(NC(=O)C3CSC4(C)CCC(=O)N34)sc2c1 (stereo not given),"inconclusive [inhibitor, single point]",–
Cc1ccc(CSCCNC(=O)c2ccc(N(C)S(=O)(=O)c3ccccc3)cc2)cc1,"inconclusive [inhibitor, partial curve, poor fit]",–
CC[C@]12c3[nH]c4ccccc4c3CCN1C(=O)C(CC(=O)NCC13CC4CC(CC(C4)C1)C3)C[C@@H]2C(=O)N1CCN(C(=O)c2ccco2)CC1 (stereo not given in full),"inconclusive [inhibitor, single point]",–
COc1cc([N+](=O)[O-])cc(/C=N/N(CCC#N)C(C)=O)c1O,"inconclusive [inhibitor, partial curve, poor fit]",–
CC(C)=C1SC(N2CCN(c3ccc(C)cc3)CC2)=NC1=O,"inconclusive [inhibitor, single point]",–
Cc1ccc(C)n1-c1ccc(C(=O)NC2CCN(Cc3ccccc3)CC2)cc1,inactive,–
COc1ccc(CN(CC2CCC(C(=O)O)CC2)C(=S)Nc2ccc(C)c(Cl)c2)cc1 (stereo not given),"inconclusive [inhibitor, single point]",–
CC1CC(=O)c2ccccc2C1C (stereo not given),inactive,–
CCOc1ccccc1OCCCC(=O)N1CCN(S(=O)(=O)c2cc(F)ccc2F)CC1,"inconclusive [inhibitor, single point]",–
N#CC1=C2SCN(c3ccc(F)cc3)CN2C(=O)CC1c1cccc(F)c1 (stereo not given),inactive,–
Cc1cnc(C(=O)OCC(=O)NCc2ccccc2)cn1,inactive,–
O=C(CSc1ccc(-c2ccccc2)nn1)NC1CCCCC1,–,inconclusive: -31.9% [inhibitor]
CN1CCSc2ccc(C(=O)NCc3ccccc3F)cc21,"inconclusive [inhibitor, partial curve, poor fit]",–
